# Measurements: paper PMC4336329 (PLoS ONE, 2015)
# The campaign covered roughly 310,000 compounds. About 14,000 (4.5%) showed an effect of 50% or more. Effects have a minus sign here. Some of the results follow.
# Target: human ether-à-go-go-related gene (hERG) potassium channel (human, UniProt Q12809)
# Assay: primary screen, population patch clamp on CHO cells stably expressing hERG
# 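Note: peak tail current of the secondary pulse compared with the same well before compound.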
# Chain of human ether-à-go-go-related gene (hERG) potassium channel (Q12809 whole entry, looked up): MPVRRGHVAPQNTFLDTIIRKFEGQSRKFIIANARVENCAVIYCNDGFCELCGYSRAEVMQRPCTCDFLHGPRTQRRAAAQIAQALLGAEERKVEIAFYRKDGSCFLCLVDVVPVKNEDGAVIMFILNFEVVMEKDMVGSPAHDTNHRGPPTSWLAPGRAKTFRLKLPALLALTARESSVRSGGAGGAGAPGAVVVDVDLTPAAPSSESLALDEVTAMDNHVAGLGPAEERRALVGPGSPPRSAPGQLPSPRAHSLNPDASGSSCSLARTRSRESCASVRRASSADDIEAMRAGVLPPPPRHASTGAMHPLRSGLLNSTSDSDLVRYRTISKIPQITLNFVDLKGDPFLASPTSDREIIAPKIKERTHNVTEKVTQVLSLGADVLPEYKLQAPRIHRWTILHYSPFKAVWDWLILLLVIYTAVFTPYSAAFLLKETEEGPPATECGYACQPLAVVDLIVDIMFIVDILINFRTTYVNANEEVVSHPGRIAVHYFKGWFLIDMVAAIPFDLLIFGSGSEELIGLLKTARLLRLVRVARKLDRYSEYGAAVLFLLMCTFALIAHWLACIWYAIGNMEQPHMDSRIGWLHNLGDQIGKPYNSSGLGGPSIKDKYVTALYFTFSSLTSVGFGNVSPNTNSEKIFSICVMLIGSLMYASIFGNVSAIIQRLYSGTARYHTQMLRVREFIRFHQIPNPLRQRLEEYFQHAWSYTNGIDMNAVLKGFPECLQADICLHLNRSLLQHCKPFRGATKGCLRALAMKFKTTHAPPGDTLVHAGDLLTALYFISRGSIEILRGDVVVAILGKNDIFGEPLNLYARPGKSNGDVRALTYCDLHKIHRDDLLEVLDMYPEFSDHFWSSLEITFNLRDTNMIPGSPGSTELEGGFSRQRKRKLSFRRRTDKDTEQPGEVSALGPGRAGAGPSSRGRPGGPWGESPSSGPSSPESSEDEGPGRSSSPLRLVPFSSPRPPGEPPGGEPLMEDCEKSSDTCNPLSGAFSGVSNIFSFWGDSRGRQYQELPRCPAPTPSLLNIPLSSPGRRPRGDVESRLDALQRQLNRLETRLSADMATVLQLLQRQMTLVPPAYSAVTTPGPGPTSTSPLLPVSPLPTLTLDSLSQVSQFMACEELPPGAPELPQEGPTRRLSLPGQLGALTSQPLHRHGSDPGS
row,Compound,"hERG current change (%, negative = inhibition) at 10uM"
1,NNC(=O)c1csc(-c2ncc(C(F)(F)F)cc2Cl)n1,9.63%
2,CS(=O)(=O)Cc1nc2ccccc2oc1=O,9.72%
3,CCOc1cc(C(=O)N2CCN(c3ccccc3)CC2)cc(OCC)c1OCC,10.7%
4,COc1ccc(-c2cc(=O)oc3c(C)c(OCC(=O)Nc4cccnc4)ccc23)cc1,-11.6%
5,Cc1ccc(N2C(S)=C(C#N)C(=O)NC23CCCCC3)cc1,20.8%
6,O=C(CN1c2cccc3cccc(c23)S1(=O)=O)Nc1ccccc1F,19.5%
7,CCOC(=O)c1ccc(NCc2ccc3c(c2)OCO3)cc1,24.1%
8,CCSc1nnc(C(N)Cc2ccccc2)o1.Cl (stereo not drawn),13.3%
9,CCOC(=O)N1CCN(C(=O)c2cn(C)c3ccc(S(=O)(=O)N4CCC(C)CC4)cc3c2=O)CC1,-1.12%
10,Cn1c(N)c(C(=O)COC(=O)Cc2ccsc2)c(=O)n(C)c1=O,-35.9%
11,O=C(CSc1nnnn1-c1cccnc1)Nc1ccc(F)cc1F,15.4%
12,CCN(CCn1cccn1)C(=O)C1CCC(=O)N(CC2CCCCC2)C1 (stereo not drawn),15.1%
13,CC1CCCN(CC(O)COc2ccc(S(=O)(=O)N3CCCC3)cc2[N+](=O)[O-])C1 (stereo not drawn),-14.6%
14,CCn1nc(C(=O)Nc2cccc(C(F)(F)F)c2)c(Cl)c1Cl,21.3%
15,O=C(Nc1ccccc1)c1cccc(S(=O)(=O)NCc2ccco2)c1,-9.13%
16,CCOc1ccc(CC2S/C(=N/N=C/c3ccco3)NC2=O)cc1 (stereo not drawn),17.2%
17,COc1ccc(N2CCN(C(=O)CN(CCc3ccccc3)S(C)(=O)=O)CC2)cc1,-12.2%
18,COc1cc(CN(CCc2c(C)[nH]c3ccc(C)cc23)C(=S)NC(C)(C)C)cc(OC)c1OC,9.34%
19,CCC(C(=O)Nc1cccnc1)c1ccccc1 (stereo not drawn),15.6%

row,Compound,"hERG current change (%, negative = inhibition) at 10uM"
1,CC1CCN(C(=O)CCl)CC1,20.2%
2,CN(C(=O)COC(=O)c1ccc(-c2ccc(O)cc2)cc1)C1CCS(=O)(=O)C1 (stereo not drawn),10.8%
3,Cc1ccc(NC(=O)COS(=O)c2ccc(C)cc2)cc1 (stereo not drawn),-7.21%
4,OCCN=C1CCCc2c1[nH]c1ccc(Br)cc21,6.45%
5,CC(=O)N1c2ccc(S(=O)(=O)N3CCC(C(=O)Nc4ccccn4)CC3)cc2CC1C (stereo not drawn),17.6%
6,CCOCCCNC(=O)C1CCCN1C(=O)Nc1ccccc1[N+](=O)[O-] (stereo not drawn),5.03%
7,COc1ccc(-c2nc(-n3c(C)c(C(C)=O)c(C(C)=O)c3C)sc2C)cc1OC,-1.38%
8,O=C(c1ccc(Cl)c(NC2=NC3CS(=O)(=O)CC3S2)c1)N1CCN(c2ccc(F)cc2)CC1 (stereo not drawn),17.6%
9,COc1ccccc1C(=O)Nc1cc(Cl)ccc1O,11.2%
10,CCCn1c(C(CO)Nc2nc(-c3cccc(Br)c3)cs2)nc2ccccc21 (stereo not drawn),-2.42%
11,COc1ccc2c3n([n+]([O-])c2c1)CCN=C3c1ccc(C)cc1,-8.96%
12,CC(=O)OC1C2CCCC1C([NH+]1CCCC1)CC2.[Cl-] (stereo not drawn),3.57%
13,COc1ccc(/C=N/OC/C(O)=C(\C#N)c2nc3ccccc3[nH]2)cc1OC,-3.67%
14,CCOc1cc(Br)c(CN2C(=O)NC3(CCCCCC3)C2=O)cc1OCC,18.4%
15,CCCCNC(=O)c1onc(CSc2cccc(OC)c2)c1C(=O)NCCCC,-15.2%
16,O=c1[nH]nc(Cc2ccc(-c3ccccc3Cl)o2)c2ccccc12,4.34%
17,CCOc1ccc(NC(=O)N2CCN(C(=O)c3ccco3)CC2)cc1,3.54%
18,Fc1cccc2sc(N3CCCCC3)nc12,12.8%
19,COc1ccc(-n2nc3cc(C)c(N)c(Br)c3n2)cc1,8.19%

row,Compound,"hERG current change (%, negative = inhibition) at 10uM"
1,CCn1nnnc1NCc1cccn1C,15.9%
2,CCOC(=O)C1CCCN(C(=O)c2cc(-c3ccccc3)on2)C1 (stereo not drawn),-15%
3,CC1CCCC(NCC(=O)Nc2ccc(C(N)=O)cc2)C1C (stereo not drawn),5.44%
4,Cc1ccc(NC(=O)CSc2nnc(-c3cc(C)[nH]n3)n2N)c(C)c1,14.6%
5,C/C(CC(=O)Nc1ccccc1F)=N\NC(=O)Cc1ccc(Cl)cc1,-4.52%
6,O=C(CSc1nnc(C2COc3ccccc3O2)o1)Nc1nccs1 (stereo not drawn),7.26%
7,COc1cccc(/C=N/NC(=O)C(=O)Nc2ccccc2OC(F)(F)C(F)F)c1O,0.623%
8,Cc1sc2nc(-c3ccccn3)[nH]c(=O)c2c1-c1ccccc1,20.9%
9,COc1cccc(CCc2nc3ccccc3c(=O)n2N)c1,6.13%
10,CCN(C(=O)COC(=O)c1ccccc1SCC(=O)NC1CCCCCCC1)C1CCS(=O)(=O)C1 (stereo not drawn),-15.3%
11,Cc1nc2ccccc2nc1OCC(=O)NCC(F)(F)F,4.95%
12,COc1cc(NC(=O)C2CC(=O)N(Cc3ccco3)C2)cc(OC)c1 (stereo not drawn),-6.64%
13,CC(OC(=O)C1CC(=O)N(Cc2ccco2)C1)C(=O)Nc1ccccc1[N+](=O)[O-] (stereo not drawn),-19.1%
14,O=C(CSc1nnc(NC(=O)c2cccc(F)c2)s1)NCC1CCCO1 (stereo not drawn),19.1%
15,CCOc1cccc(N2C(=O)CC(N3CCN(c4ccc(S(=O)(=O)CC)cc4)CC3)C2=O)c1 (stereo not drawn),-38.3%
16,CCCCCCC(=O)N/N=C/c1c(O)n(C2CC2)c(=S)[nH]c1=O,-4.67%
17,CCOc1cc2[nH]c(=O)n(CCCCC(=O)NC3CCCCCC3)c(=O)c2cc1OCC,-0.757%
18,CC(C)[C@H](N)c1nnc2n1N=C(c1ccc(Cl)cc1)CS2.Cl,-18%
19,CCOCCN1CCN(c2nnc3n2-c2ccc(Cl)cc2C(c2ccccc2Cl)=NC3)CC1.O=CO,-76.5%
